Source: PubChem BioAssay AID1159614 (National Center for Advancing Translational Sciences (NCATS), 2016)
The campaign covered roughly 45,000 compounds. About 65 (0.1%) were called active. The call rests on the fitted dose curve; in most records, active means well fitted activation curve with a large enough effect; inconclusive means small, poorly fitted or top-dose-only effect; inactive means no such curve, though single readings can be large or run the other way. This is one part of the list.

What follows are compounds tested against Galactocerebrosidase (Homo sapiens) (UniProt P54803) (assay: A Novel Cell-Based Assay to Identify Small Molecules for B -Galactocerebrosidase). Conditions: 145M-Twi-hGALC-G270D cells (Twitcher mouse brain line with human GALC G270D), HMU-beta-Gal fluorescence, 48 h; series mostly up to 57.5 µM; activation: at the top concentration.
UniProt P54803, sequence (P54803 whole entry, looked up): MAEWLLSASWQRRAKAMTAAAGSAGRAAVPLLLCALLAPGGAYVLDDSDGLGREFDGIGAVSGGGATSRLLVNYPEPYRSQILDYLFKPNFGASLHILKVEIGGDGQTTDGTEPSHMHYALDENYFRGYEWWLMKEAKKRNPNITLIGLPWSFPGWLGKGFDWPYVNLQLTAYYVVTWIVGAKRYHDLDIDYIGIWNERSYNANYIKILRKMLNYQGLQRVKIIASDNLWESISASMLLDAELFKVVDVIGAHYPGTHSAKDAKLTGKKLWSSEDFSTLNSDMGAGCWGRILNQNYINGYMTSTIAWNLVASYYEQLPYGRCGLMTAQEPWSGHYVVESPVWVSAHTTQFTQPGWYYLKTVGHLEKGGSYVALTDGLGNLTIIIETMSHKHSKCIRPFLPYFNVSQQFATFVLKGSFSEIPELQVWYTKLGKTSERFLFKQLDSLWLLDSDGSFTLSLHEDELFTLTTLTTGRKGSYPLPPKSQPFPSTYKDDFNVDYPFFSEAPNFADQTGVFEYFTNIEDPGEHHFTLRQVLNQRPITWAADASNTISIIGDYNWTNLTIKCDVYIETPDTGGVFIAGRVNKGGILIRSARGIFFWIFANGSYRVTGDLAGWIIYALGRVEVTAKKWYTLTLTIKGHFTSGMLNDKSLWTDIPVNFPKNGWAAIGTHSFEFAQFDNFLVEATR
In short: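 Live 145M-Twi cells (Twitcher mouse brain-derived, GALC-null) stably expressing human GALC-G270D, with a wild-type GALC line, were compound-treated. Residual GALC activity was then read as fluorescence from 0.1 mM final HMU-β-gal at pH 5.2; higher signal means activation.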
Further: 0% is about no effect; nearly all actives have a fitted effect of over 65% in size.

activation, inactive:
COc1ccc(NC(=O)c2cnn(-c3ccc(F)cc3F)c2C2CCN(C(=O)OC(C)(C)C)CC2)cc1Cl 3.64%, Cc1cc(O)c(C(c2ccc(Cl)cc2)N2CCN(c3ccccc3)CC2)c(=O)n1Cc1ccco1 (stereo not given) -15.7%, Fc1ccc(-c2cn3cc(Cc4ccccc4Cl)sc3n2)cc1 -0.951%, Cc1cc2ccccc2n1CCNC(=O)c1ccc(F)cc1 -8.78%, CCN1C(=O)C2(c3ccccc31)c1c(oc3ccc(C)cc3c1=O)C(=O)N2CCCOC(C)C (stereo not given) -10.7%, CC1=C(c2ccc(C)cc2)S(=O)(=O)N(Cc2ccc(C(=O)Nc3ccccc3C)cc2)C1=O -10.8%, Cc1ccc(CCNC(=O)c2ccc(CS(=O)(=O)c3ccc(Cl)cc3)o2)cc1 5.47%, COCCNC(=O)CCCN1C(=O)CCn2nc(-c3cccn3C)cc21 -10.9%, Cc1ccc(NC(=O)/C(C#N)=C/c2cc(C)n(-c3ccc(Br)cc3)c2C)cc1C -17.9%, CCOc1ccccc1NC(=O)n1ncc2cc(Cl)ccc21 -7.99%, COc1ccc(CCn2c(=O)[nH]c3cc(C(=O)N4CCN(c5ccccc5)CC4)ccc3c2=O)cc1OC -18.2%, Cc1oc(-c2ccc(C(=O)NC(C)c3ccccc3)cc2)nc1CS(=O)(=O)c1ccccc1 (stereo not given) -8.47%, O=C(c1ccccc1F)N1CCC(c2nc3c(nnn3Cc3cccc(F)c3)c(=O)[nH]2)CC1 -18.5%, COC(=O)c1ccccc1NC(=O)CCCN1C(=O)C(c2ccccc2)Oc2cccnc21 (stereo not given) -12.5%, COc1ccc(NC(=O)Cn2c(=O)oc3cc(S(=O)(=O)N4CCCCC4C)ccc32)cc1 (stereo not given) -9.49%, COc1ccc(C)cc1NS(=O)(=O)c1c(C)nc2sc(C)cn2c1=O 2.38%, CCOc1ccccc1NC(=O)CSc1ccc2nnc(CCNS(=O)(=O)c3ccccc3)n2n1 1.11%, Brc1ccc(-c2noc(-c3ccccc3)n2)o1 10.7%, COCCNC(=O)CCCn1c(=O)[nH]c2ccsc2c1=O -6.99%, COc1cc(OC)c(NC(=O)c2cc(C(C)=O)n3ccccc23)cc1Cl -18%, COc1ccc(OCC(=O)N(Cc2cccc(OC)c2)C2CCS(=O)(=O)C2)cc1 (stereo not given) -11.4%, CC(=O)Nc1ccc(NS(=O)(=O)c2cc(Br)cc3c2N(C(=O)C2CC2)CC3)cc1 -8.57%, Cc1ccc(Nc2ncnc3c2cnn3-c2ccc(C)cc2)cc1 -15.6%, CN(C)CCN(Cc1ccccc1)S(=O)(=O)c1ccc(-c2cc(C(F)(F)F)on2)s1 3.43%, CCOc1ccc(NS(=O)(=O)c2ccc3[nH]cc(C(=O)NCCOC)c(=O)c3c2)cc1 -13.4%, CN(C)CCNC(=O)CCCn1c(=O)c2cccn2c2ccccc21 -15.6%, Cc1ccc(Cl)cc1N(C)C(=O)c1noc2c1CCCCC2 -20.2%, Cc1nn(Cc2noc(C(=O)NCc3cccc(F)c3)n2)c(C)c1Br -25.3%, CSCCC(NS(=O)(=O)c1ccc2c(c1)oc(=O)n2C)C(=O)NCc1ccc(F)cc1 (stereo not given) -12.8%, COc1ccc(-n2cc(C(=O)N(C)c3cc(C)ccc3OC)c3ccccc3c2=O)cc1 -12.8%, COc1ccc(NC(=O)c2sc3nc(C)c(C(=O)Nc4ccc(C)cc4C)c(-c4ccccc4Cl)c3c2N)cc1 -12.1%, COc1ccccc1NC(=O)C1=C(C)Nc2nc(SCC(=O)c3ccc(C)cc3)nn2C1c1ccccc1C (stereo not given) -18.7%, CCOc1ccccc1CN1CCc2nc(N3CCN(C)CC3)ncc2C1 -14.3%, Cc1ccc(NC(=O)CSc2nc(-c3cccs3)nc3cc(=O)[nH]n23)cc1C -16.4%, COc1ccc(-c2cn3cccnc3n2)cc1NC(=O)Nc1cc(C)ccc1C -14.7%, O=C(NCCc1ccccc1)C1CCN(Cc2cc3ccccc3n2Cc2ccccc2)CC1 1.05%, CCOCCCNc1nc2c(S(=O)(=O)c3ccc(CC)cc3)nnn2c2ccc(Cl)cc12 13.6%, O=C(Cn1ncc2c3ccccc3n(Cc3cccc(Cl)c3)c2c1=O)NCCCN1CCCCC1 -15%, Cc1ccc(C)c(N2CCN(S(=O)(=O)c3ccc(-c4cnc(C5CC5)o4)cc3)CC2)c1 -13.4%, Cc1ccc(CNC(=O)Cn2c(=O)cc(C)c3c(C)nn(-c4cccc(F)c4)c32)cc1 -7.88%, O=C(Nc1ccc(C(=O)N2CCN(c3ccccc3F)CC2)cc1)c1nsc2ccccc12 -5.94%, CN1C(C(=O)c2ccccc2)=C(NC(=O)c2ccc(F)cc2)c2ccccc2S1(=O)=O -15.1%, COc1ccc(COC(=O)C2=C(C)NC(=O)CC2c2cccc(Cl)c2Cl)cc1 (stereo not given) -8.21%, CCOc1ccc(-c2cc(C(=O)NC(C)c3ccccc3)c3ccccc3n2)cc1 (stereo not given) -15.9%, COc1ccc([C@@H]2Sc3ccccc3NC(=O)[C@@H]2O)cc1 -6.52%, Cc1cccc(C(=O)NC2(C(F)(F)F)N=C(c3ccccc3)N(C3CCCCC3)C2=O)c1 (stereo not given) 2.23%, O=C(NCCc1ccc(Cl)cc1)c1ccc2c(c1)nc1n2CCOC1 -2.25%, CN(C)CCN(Cc1ccco1)C(=O)c1cc2c(s1)-c1ccccc1OC2 -8.66%, COc1ccc(-c2onc(C)c2C)cc1S(=O)(=O)Nc1cccc(C#N)c1 -14.4%, CCOC(=O)N1CCc2c(sc3c2c(=O)n(-c2ccc(F)cc2)c(=O)n3CC(=O)c2ccc(Cl)cc2)C1 -7.39%, CC(C)C(=O)OCc1cccc(OC(=O)[C@@H]2N3C(=O)[C@@H](NC(=O)Cc4ccccc4)[C@H]3SC2(C)C)c1 -10.7%, COC(=O)[C@H]1[C@H]2C[C@@H]3c4[nH]c5cc(OC)ccc5c4CCN3C[C@H]2C[C@@H](OC(=O)COc2ccc(OC)cc2)[C@@H]1OC -26.3%, CCOc1ccc(C(=O)NCC(c2ccc(Cl)cc2)N2CCCCC2)cc1 (stereo not given) -7.97%, CC(=O)C1=C(c2ccc(F)cc2)N(C(C)=O)n2c(nnc2C2CCCCC2)S1 -2%, CCCNC(=O)CSc1c(CCC)cnc2c1c(=O)n(C)c(=O)n2C -12.5%, CC(C)COCC(CN(Cc1ccccc1)c1ccccc1)N1CCCC1 (stereo not given) -5.22%, Cc1cc(C)c(NC(=O)C(C)n2c(=O)cc(-c3ccccc3)c3c(C)nn(C)c32)c(C)c1 (stereo not given) -13.7%, COc1ccc(-c2nnn3c2nc(NCc2ccc(C)cc2)c2ccccc23)cc1 -0.834%, CCCCNc1ccc(-c2nc(-c3ccccn3)no2)cc1[N+](=O)[O-] 3.08%, Cc1ccccc1C(=O)OCc1cc(=O)n2nc(C3CCCCC3)sc2n1 -11.4%
